Test results from the supplement of paper PMC3334620.
The full ranking holds about 33,000 sequences; the median of “E-score (-0.5 to 0.5)” is about -0.016, and the highest 2% start at about 0.31. This is one part of the list.

Molecular target: Cst6 (UniProt P40535)
Assay: PBM E-score (8-mer binding enrichment) (E-score (-0.5 to 0.5)); higher = stronger / more preferred TF binding; most listed sequences are background and not binding sites
Settings: protein concentration: 200 nM; construct: GST-DNA-binding domain
Description: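 Universal 'all 10-mer' protein binding microarrays (Agilent AMADID 015681) probed with GST-tagged S. cerevisiae TFs (full-length or DBD) made by in vitro transcription/translation (PURExpress), about 100-200 nM. Bound TF was detected with fluorescent anti-GST. Each ungapped 8-mer (which stands for itself and its reverse complement) is scored by the PBM enrichment score (E-score), a modified Wilcoxon-Mann-Whitney statistic from -0.5 to +0.5, computed with the Universal PBM Analysis Suite. Scale: above 0.35 generally sequence-specific binding.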

Sequence	PBM E-score
GGTTCTAC	-0.204
AATTCAAG	0.0712
ACTTGGGA	-0.308
GCTCAAAA	0.152
ATAAGATG	0.189
ATACCACC	-0.0616
CATGCTAG	-0.0106
CATATGTC	0.212
GGCTCACC	-0.346
TGCAACAA	0.139
GTATTAGA	0.173
GCGGAGCC	-0.159
TCAAACCA	0.137
CACTCTAC	0.161
ACCAGCAG	-0.218
CGGTGGTC	-0.297
AGCCAGGA	-0.138
ACATTCAT	0.155
ATCGGGCA	-0.207
CTTGTGAA	0.054
AACGTCAA	0.401
AATATGGT	0.105
ATAGGACC	-0.376
AAACGCCA	0.18

Sequence	PBM E-score
CGTAGTCC	-0.22
AAGGTGCA	0.0268
CCCTTATA	0.00215
AAGGAAAG	-0.0714
CTCAAGTC	-0.195
AACGGGGC	0.0187
ATTTTCTC	0.129
AGTAGCCA	-0.215
AGATTCGA	-0.0176
AAAGACCT	-0.062
GATTGATA	0.146
CATGCTGC	-0.0018
CTGATAGA	0.0773
CTCATGCA	0.00428
TTATTAAA	0.264
GGCATGCC	-0.117
ATCTCCAG	-0.0495
CGCTTCCC	-0.248
AAAATCTG	0.144
TAGTAGCA	0.00148
AAAGCACC	-0.239
ATCTGTGA	0.0639
CGTATGAG	0.133
CAACCATG	0.0317

Sequence	PBM E-score
AGCTTGAG	-0.186
CCGCGGCA	0.197
GTGGCTCA	-0.0901
CAAGTCAA	-0.0333
ACAGTCCA	-0.148
TAATGCTA	0.234
GGTTCCTA	-0.261
ACAAGAGG	0.00877
GATGGGCA	-0.0276
CGGTAACG	0.0497
GGCGAGCC	-0.168
CGGCCTAA	-0.0437
CTAGCGAA	-0.28
AGATGAAA	0.0551
CATCGATC	0.118
CAGACGCA	-0.0613
GATGGGAA	-0.204
CGCCCCGA	-0.174
AGGTTAAG	-0.137
CCCCAACA	-0.22
CCTGAAGG	-0.088
GCACAAAC	0.0482
ACCTACGA	0.00194
CCAGTCGC	-0.215

Sequence	PBM E-score
AGTGCCGC	0.218
CAGGCCTA	-0.0934
CCTCAGAA	-0.0484
CACTGATA	0.0895
AGAGTTCG	0.064
GTGACGTA	0.496
AGTTCCAG	-0.134
CGTAAGGA	0.116
ATCGATGA	0.222
CCTCTCCC	-0.367
GTAAGCAC	-0.0636
TACAAGAA	0.245
CCGGGCTA	-0.378
CTAGTCAC	-0.00028
GAAAGAAA	0.221
GCTACTGA	0.111
CAGTGACC	-0.0895
CCTGCAAA	-0.202
AACGGTAA	-0.0952
ACTCCCGA	-0.272
GTAGGGTA	0.0635
AGCTATCA	0.08
